# Laboratory results from publication PMC8550979 (Leukemia, 2021).
# B1: RUNX1 variant Arg118Gly, YFP fusion protein (natural protein)
# chain: not shown
# B2: RUNX1 variant Arg205Gln, YFP fusion protein (natural protein)
# chain: not shown
# B3: RUNX1 variant Leu117Gln, YFP fusion protein (natural protein)
# chain: not shown
# B4: RUNX1 variant Arg139Gln (pathogenic missense control), YFP fusion protein (natural protein)
# chain: not shown
# B5: RUNX1 variant Arg180Trp, YFP fusion protein (natural protein)
# chain: not shown
# B6: RUNX1 variant Leu29Ser, YFP fusion protein (natural protein)
# chain: not shown
# B7: RUNX1 variant Arg174Gln (pathogenic missense control), YFP fusion protein (natural protein)
# chain: not shown
# B8: RUNX1 variant Lys83Glu (pathogenic missense control), YFP fusion protein (natural protein)
# chain: not shown
# B9: RUNX1 variant Gly60Cys, YFP fusion protein (natural protein)
# chain: not shown
# Target: CBFB CFP fusion protein (human, UniProt Q13951 1-182)
# Chain of UniProt Q13951 (Q13951 whole entry, the tested form may be a part): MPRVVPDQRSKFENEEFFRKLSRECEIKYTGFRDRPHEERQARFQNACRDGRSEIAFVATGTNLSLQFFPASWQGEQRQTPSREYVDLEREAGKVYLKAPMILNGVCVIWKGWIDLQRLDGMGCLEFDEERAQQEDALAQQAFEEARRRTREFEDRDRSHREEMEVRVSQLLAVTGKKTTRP
# Assay: FRET or BRET; flow-cytometry-based FRET; RUNX1.YFP (wild type or variant) cotransfected with CBFB.CFP in HEK293T cells; gate set with RUNX1.YFP plus CFP alone; FRET+ cells relative to wild-type RUNX1; three biological replicates
# Settings: partners not purified
row,heterodimerization relative to wild type,Binder
1,≥ 85 % of wild-type activity,B1
2,≥ 85 % of wild-type activity,B2
3,≥ 85 % of wild-type activity,B3
4,≥ 85 % of wild-type activity,B4
5,≥ 85 % of wild-type activity,B5
6,≥ 85 % of wild-type activity,B6
7,≥ 85 % of wild-type activity,B7
8,≥ 85 % of wild-type activity,B8
9,≥ 85 % of wild-type activity,B9
